Test results taken from the supplement of paper PMC11417369.
The other results are listed elsewhere or left out.

These sequences were tested on PfSIP2 AP2 domain 1 (GST-tagged) (assay: gcPBM binding intensity (ln(normalized median fluorescence intensity)); higher = stronger DNA binding).
How it was run: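 Each value is the highest Masliner-normalised natural-log median intensity across replicate spots of either orientation of a probe. The probes were primer-extended double-stranded 36-bp intergenic genomic sequences on an Agilent 4 × 180k array, alongside negative controls, exposed for 1 h to GST-tagged P. falciparum DNA-binding domains expressed in E. coli. Bound protein was picked up with Alexa488 anti-GST antibody and scanned at 488 nm.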

Row | Sequence | gcPBM binding intensity (ln)
1 | TTTTATAAATCTAAACGTATCTAAATGAATAATTAA [GTGCAC_negctrl_site44] | 6.73
2 | ATATGTATTAAGTGTACACATATAATGGGTTTGTTA [CACACA_site5682] | 7.21
3 | GAAATAATTGTTAAAGGTACACAATGCATATACAAT [XGTACX_site238] | 6.97
4 | ATAATATATACTAAAAGTACATATTATAATAAATTA [XGTACX_site6749] | 6.78
5 | ACTTCATTTTTTTTATGTACACAGAAGATTTACAAA [XGTACX_site4021] | 7.86
6 | AGGAAAATAGAAAAAGCACACATATATTTTGGAATG [CACACA_site8080] | 6.92
7 | ACATATGTATGAATATCAAAAAATCCCTATTTAATG [GTGCAC_negctrl_site27] | 6.8
8 | AAAATAATAATTAATACATGCATTAATTCTTTTTTT [TGCATGCA_site741] | 6.5
9 | TATATAAATAAATGTGTACACACATTAAAATCAAAC [CACACA_site8733] | 7.89
10 | CATATATTATTTAATAGTACATATAAAAGAAAAAAA [XGTACX_site4643] | 6.99
11 | TATATACATATATATACACACATATATATATTTTAT [CACACA_site3788] | 7.18
12 | ATTTATTTATTTTTTTGTACGAATGTTGCACATATA [XGTACX_site4101] | 7.43
13 | GTTATAACTCAAATATGTACATATTATAAAACATAT [XGTACX_site6693] | 7.24
14 | TATAAAAATAAGCACACACACAAATATATATTTATT [CACACA_site922] | 6.96
15 | TTATAGAACTATATTGCACACATAATATATATATAT [CACACA_site9042] | 9.04
16 | AAAAAAAAAAAAAAAGGTACACAAATACGTCCTGCA [XGTACX_site3354] | 7.65
17 | AATTATCAAAGTCTATACATACATACATACATACAT [GTGCAC_negctrl_site243] | 7.56
18 | TAATTATAATAAAAAGGTACAGAAAAGTTATACTCA [XGTACX_site6111] | 6.7
19 | ATAAAATAAATAAATATAAATATATATATATATATA [TGCATGCA_negctrl_site358] | 9.26
20 | TAAGAAAAAGGCACACGTACATAATTCAAAATAAAT [XGTACX_site982] | 7.05
21 | CCAATGAGGATATATACACACATACATTAAAAAAAT [CACACA_site5090] | 7.05
22 | ATATATATGTATGTATGTACTTATTTATTTATTTAT [XGTACX_site7740] | 7.19
23 | TTTTTTTTCACACATTGTACTTTTTTATAAAATATA [XGTACX_site4351] | 7.34

Row | Sequence | gcPBM binding intensity (ln)
24 | ATTTAAATAATATGTACACACATTTAAAAAATTATA [CACACA_site2816] | 7.13
25 | GTCAACTTGTGATAAGTGCATATATATAATAAAATG | 8.24
26 | CGAAATAAATCTTATGCACACAAATAATTAATTAAA [CACACA_site8491] | 8.2
27 | AAAAAAATATAATATTTGAATAAATATAATAATATG [XGTACX_negctrl_site477] | 7.01
28 | AATATATAGGTATTTACACACAATGTGAGATCTATA [CACACA_site3407] | 6.8
29 | ATTTATGAAAAGTAAAGTACACACAGGAAAAAAAAA [XGTACX_site3564] | 6.94
30 | TAATTTTTCCTTTTTGCACACATTAACGTCGACGAA [CACACA_site4025] | 7.27
31 | CAATTTATTTTTATTACACACTATCCAAATAATTTC [CACACA_site2956] | 6.99
32 | CCATAAAATCATAAGCGTACTTAATATATTTTACTT [XGTACX_site559] | 6.96
33 | TTAAACAATTTAGACATACACACAAAAATAATATTA [CACACA_site385] | 7.01
34 | AACATACGACAATACGCACACATATATGTACATATT [CACACA_site1917] | 7.23
35 | TATATAATAATTTAGAGTACTGATAAAATATTCCAT [XGTACX_site6200] | 7.03
36 | AGCATACATATTTTTTGTACATATATATATATATAT [XGTACX_site8536] | 8.87
37 | TGCTCCTATTATATAGTGCATTTATTTTAATAAACG | 8.87
38 | TAATTTATAAAAAATTGTACATTAAACATATATATA [XGTACX_site5164] | 7.01
39 | TCTTTTCGTTCATGCTGTACTTAATTGCTCTAATTT [XGTACX_site4816] | 7.36
40 | CCCTGCCTCTCTTTGGTGCGTTGTAACCCTCGAGGA | 9.25
41 | AAAAAAAAAAAAAGCACACACACATATGTGTATATA [CACACA_site8225] | 7.16
42 | TGTCTGTGCGGGTGTACACATTTCATATTACCCAAT [CACACA_site5593] | 7.64
43 | TAAATTGTATATGAGACTATACTATAAAAGTATGAA [XGTACX_negctrl_site22] | 6.66
44 | AATTAGATACTAACAAGTACATATATATATATATAT [XGTACX_site2252] | 9.77
45 | TTTCCCTAATGAAAGTGTACCTGTGAGAAAAAAAAG [XGTACX_site194] | 7.19
46 | TTGTAATTATTAAACACACACAAAATATCTAGAATA [CACACA_site7231] | 6.86

Row | Sequence | gcPBM binding intensity (ln)
47 | ATTTTTTTTTGTGTATATAAATAAATAAATATATAT [GTGCAC_negctrl_site603] | 7.09
48 | ATTTAGATTAACACTTGTACATAATACATACAAATA [XGTACX_site4147] | 7.04
49 | AAAAGAAAAGAGAGGAGTACAAAATATAATTATCTA [XGTACX_site5172] | 7.22
50 | TGTATATATTAATGTACACACATGCGTATGTTCGTT [CACACA_site3583] | 7
51 | TTATTTATTTATATAGTGCAATAAACACATAAATAG | 8
52 | AAAAAAAAAAAAAGAACACACACAGTGCACATTCGG [CACACA_site8163] | 10.6
53 | CATATTGGTATGCTCATGCACTTTTATTTTGTTATT [GTGCAC_site9553] | 7.66
54 | TATAAAAAGCAAAACAAAAAAACAAATTGAAAAATT [TGCATGCA_negctrl_site158] | 6.64
55 | TATAAATAATAAAGATGTACTTTTTATGATTCCTAC [XGTACX_site7003] | 7.05
56 | TTTTTTATTTTTTTATTGTTTTATTGTTTCATTGTT [XGTACX_negctrl_site128] | 6.91
57 | CCGTAGTTTTAAAATAGTACTTTTATGGTTAATAAA [XGTACX_site3162] | 6.93
58 | TTACTACTATATTATACACACATATATTTATTTATA [CACACA_site7274] | 7.12
59 | TTGTTTCTCTTTAAAAGTACAAAAATGGTTACATAT [XGTACX_site3109] | 7.1
60 | TAGATTTTTTAATGTTGTACAAATATACGATATATA [XGTACX_site3258] | 7.31
61 | ACATCAAGCAGACACACACACACACGCACACGCACA [CACACA_site6309] | 8.4
62 | ACTATTCATGCATATACACACACATATATATATATT [CACACA_site9309] | 7.73
63 | ACTTTAAACAAAAAAAGTACTCTTTAATGAATATAT [XGTACX_site7176] | 6.93
64 | TATATATATATATATATATATATATATATATGTTGT [TGCATGCA_negctrl_site24] | 8.99
65 | CAATATTTTATTTAAGCATGCTCTAGGGTGTAAAAG [TGCATGCA_site1001] | 7.01
66 | CAATTTCTCTTAATTTGTACATATATGTTATACAAA [XGTACX_site3231] | 7.14
67 | AAATATATATAAAAGTGTACATTTGTTATAATCAGT [XGTACX_site4822] | 7.28
68 | TTATATATTTCTACTCATATTACAATGTGAGAAATA [CACACA_negctrl_site873] | 6.95
69 | AACATTAAAAGGGATACACACATATAAATAAATAAT [CACACA_site489] | 7.03

Row | Sequence | gcPBM binding intensity (ln)
70 | CTCAACAAAATATGAGTGCATTGTTATTACATATAT | 9.15
71 | TAGATATATAATTTTTGTACGTAGTCGAATCTCAGA [XGTACX_site765] | 6.76
72 | CCAACTAAAAAGGAATGTACATAGTTATGGTTGGAA [XGTACX_site8762] | 6.89
73 | ATCAAAAAAAAAAAAAGTACACAAAATTTTTTATTA [XGTACX_site7986] | 6.88
74 | TATATGTGTGTTATATGTACTTATATATATATATAT [XGTACX_site5570] | 9.06
75 | ATAATGAACAAAGTAGTGCACTTTCCTTATCTTTTC | 10.9
76 | AAGGTTTAAAATTACTGTACAAATATAAATAAATAT [XGTACX_site3756] | 6.93
77 | TACATATTTAAATACTGTACTCAAAAGAATTGTGCA [XGTACX_site2250] | 7.13
78 | ACTAATATGTATATATATATATATATATATATATAT [CACACA_negctrl_site141] | 9.31
79 | TATAGTATTCTAAATGCATGTAAATTATGTATATAT [TGCATGCA_site931] | 7.09
80 | AAATTCCACGAACACACACACATATAAATAAATAAA [CACACA_site6697] | 7.1
81 | TAGTAAAAACCAAAATGTACATGTGCCATTTTTTTA [XGTACX_site2630] | 6.68
82 | TATATTATACTAAGAAGTACAATATTTTTATTGTAA [XGTACX_site2810] | 7.03
83 | GTTTATCACAGCCACGCACACATAATATCTGTATAT [CACACA_site5929] | 7.36
84 | CTTATATTGTACAGTACACACCTTTATAATGTTATT [CACACA_site4280] | 7.26
85 | GATTATTAATAGTAACGTACATATGTTATAAAATAT [XGTACX_site5277] | 7.18
86 | ATGAATCCTTAATATGAACACACAAATATATTACAC [CACACA_site7943] | 7.08
87 | TTTTTTATTTATCCTATATATTACTAAATGAAGAAC [GTGCAC_negctrl_site333] | 7.46
88 | TTATTTCAAAGTAAATCAGTAAATATTTGTTTTCTT [CACACA_negctrl_site1572] | 6.58
89 | TCCTTATTTATATAATGTACTTTTTTTTTTCATTTT [XGTACX_site4275] | 6.92
